The target in one test is each FcγR. The test can be described thus: SPR (Biacore), relative binding. Background: In SPR one partner is held on a chip, and binding of the other changes the refractive index at the surface.
The target of the next test is FcγR other than FcγRIa. Put plainly: SPR (Biacore), relative binding.
Test [1] deals with FcγRIIIa extracellular domain with C-terminal His tag (human) (UniProt P08637). The test can be described thus: SPR (Biacore), captured antibody, FcγR as analyte; relative to GpH7-A5/GpH7-B3/GpL16-k0 = 100.
Sequence of UniProt P08637 (P08637 17-208): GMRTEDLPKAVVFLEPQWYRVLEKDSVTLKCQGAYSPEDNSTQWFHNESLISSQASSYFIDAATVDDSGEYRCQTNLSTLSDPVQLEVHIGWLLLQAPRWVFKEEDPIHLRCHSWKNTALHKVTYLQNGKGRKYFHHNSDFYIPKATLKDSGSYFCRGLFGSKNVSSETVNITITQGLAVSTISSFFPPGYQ
The target in test [2] is FcγRIIb extracellular domain with C-terminal His tag (human) (UniProt P31994). Described as above.
Sequence of UniProt P31994 (P31994 43-217): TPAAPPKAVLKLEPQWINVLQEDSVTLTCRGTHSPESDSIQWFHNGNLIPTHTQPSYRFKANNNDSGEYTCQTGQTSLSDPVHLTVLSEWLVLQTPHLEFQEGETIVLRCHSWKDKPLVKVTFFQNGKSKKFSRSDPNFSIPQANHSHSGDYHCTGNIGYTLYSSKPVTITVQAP

The values below come from patent US20180155451A1.

“And” between values parts separate entries of the source, which are not always exact repeats. Equal values may be shown once.

B1: GpH7-A5/GpH7-B12/GpL16-k0 (antibody, human IgG1, kappa)
heavy 1: QVQLVQSGAEVKKPGASVTVSCKASGYTFTDYEMHWIRQPPGEGLEWIGAIDPKTGDTAYSESFQDRVTLTADKSTSTAYMELSSLTSEDTAVYYCTRFYSYTYWGQGTLVTVSS[no letters for human IgG1 constant region with D356K H435R (EU numbers)]
heavy 2: QVQLVQSGAEVKKPGASVTVSCKASGYTFTDYEMHWIRQPPGEGLEWIGAIDPKTGDTAYSESFQDRVTLTADKSTSTAYMELSSLTSEDTAVYYCTRFYSYTYWGQGTLVTVSS[no letters for human IgG1 constant region with P329R K439E (EU numbers)]
light: DIVMTQSPLSLPVTPGEPASISCQASESLVHSNRNTYLHWYLQKPGQSPQLLIYKVSNRFSGVPDRFSGSGSGTDFTLKISRVEAEDVGVYYCSQNTHVPPTFGQGTKVEIERTVAAPSVFIFPPSDEQLKSGTASVVCLLNNFYPREAKVQWKVDNALQSGNSQESVTEQDSKDSTYSLSSTLTLSKADYEKHKVYACEVTHQGLSSPVTKSFNRGEC
On to B1, for which the binding activity relative to GpH7-A5/GpH7-B3/GpL16-k0 (fraction of GpH7-A5/GpH7-B3/GpL16-k0) with each FcγR was 0.2 and 0.25.

B2: GpH7-A5/GpH7-B15/GpL16-k0 (antibody, human IgG1, kappa)
heavy 1: B1 heavy 1
heavy 2: QVQLVQSGAEVKKPGASVTVSCKASGYTFTDYEMHWIRQPPGEGLEWIGAIDPKTGDTAYSESFQDRVTLTADKSTSTAYMELSSLTSEDTAVYYCTRFYSYTYWGQGTLVTVSS[no letters for human IgG1 constant region with P329E K439E (EU numbers)]
light: B1 light
In the case of B2, in the test with FcγR other than FcγRIa, the percent of the binding activity of GpH7-A5/GpH7-B3/GpL16-k0 was more than 50%.

B3: GpH7-A5/GpH7-B13/GpL16-k0 (antibody, human IgG1, kappa)
heavy 1: B1 heavy 1
heavy 2: QVQLVQSGAEVKKPGASVTVSCKASGYTFTDYEMHWIRQPPGEGLEWIGAIDPKTGDTAYSESFQDRVTLTADKSTSTAYMELSSLTSEDTAVYYCTRFYSYTYWGQGTLVTVSS[no letters for human IgG1 constant region with P329K K439E (EU numbers)]
light: B1 light
Consider B3, for which the binding activity relative to GpH7-A5/GpH7-B3/GpL16-k0 (fraction of GpH7-A5/GpH7-B3/GpL16-k0) in the test with each FcγR was 0.2 and 0.25.

B4: GpH7-A5/GpH7-B14/GpL16-k0 (antibody, human IgG1, kappa)
heavy 1: B1 heavy 1
heavy 2: QVQLVQSGAEVKKPGASVTVSCKASGYTFTDYEMHWIRQPPGEGLEWIGAIDPKTGDTAYSESFQDRVTLTADKSTSTAYMELSSLTSEDTAVYYCTRFYSYTYWGQGTLVTVSS[no letters for human IgG1 constant region with P329D K439E (EU numbers)]
light: B1 light
B4 came in with a percent of the binding activity of GpH7-A5/GpH7-B3/GpL16-k0 with FcγR other than FcγRIa of more than 50%.

B5: GpH7-A5/GpH7-B3 variant G237_12R/GpL16-k0 (heterodimerized antibody, He Ab) (antibody, human IgG1, kappa)
heavy 1: B1 heavy 1
heavy 2: QVQLVQSGAEVKKPGASVTVSCKASGYTFTDYEMHWIRQPPGEGLEWIGAIDPKTGDTAYSESFQDRVTLTADKSTSTAYMELSSLTSEDTAVYYCTRFYSYTYWGQGTLVTVSS[no letters for human IgG1 constant region with G237R K439E (EU numbers)]
light: B1 light
The molecule B5 had a He/Con 3a (IIIa binding) (% of HeCon Ab) in test [1] of 7.4. Besides, the He/Con 2b (IIb binding) (% of HeCon Ab) in test [2] came to 9.8.
